Reference: the supplement of paper PMC9334596
“And” between values parts separate entries of the source, which are not always exact repeats. Identical values can stand only once. Whole data set: some 5,300 compounds, median “PER2::LUC luminescence relative to vehicle control” near 0.96, cut for the highest 2% near 1.3. The list shows a part of the results.

System: mPer2Luc MEF
Assay: PER2::LUC luminescence relative to vehicle control (fold of vehicle); higher = higher PER2::LUC reporter signal
Details: 10 µM
Outline: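 Mouse embryonic fibroblasts carrying the mPer2Luc reporter were seeded at ~3000 cells per well in 384-well plates, 48 h before compounds from commercial libraries were added at 10 μM. Cells were grown in DMEM with 10% FBS at 37 °C and 5% CO2. Luminescence was read with the ONE-Glo luciferase assay system 24 h and 30 h after treatment, followed by an alamarBlue viability assay. The value is PER2::LUC luminescence as fold of vehicle control.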

Structure (SMILES)	PER2::LUC luminescence (time after treatment 24 h)	PER2::LUC luminescence (time after treatment 30 h)
C=CC(=O)Nc1cccc(Oc2nc(Nc3ccc(N4CCN(C)CC4)cc3OC)ncc2Cl)c1	0.827	1
O=C(/C=C/c1ccc(O)c(O)c1)OCCc1ccccc1	0.173	0.361
NC(=O)c1ccccc1Nc1ccnc(Nc2cccc(O)c2)n1	0.392	0.446
N[C@](CC1c2ccccc2Oc2ccccc21)(C(=O)O)[C@H]1C[C@@H]1C(=O)O	0.942	1.05
NNc1nncc2ccccc12	1.17	1.28
CC(=O)OCC(CCn1cnc2cnc(N)nc21)COC(C)=O	0.983	1.13
COc1ccc([C@@H]2CC(=O)c3c(O)cc(O[C@@H]4O[C@H](CO)[C@@H](O)[C@H](O)[C@H]4O[C@@H]4O[C@@H](C)[C@H](O)[C@@H](O)[C@H]4O)cc3O2)cc1O	0.937	0.89
C1CNCCN1	0.982	0.915
N[C@@H]1c2cccnc2[C@H](OC(=O)N2CCC(n3c(=O)[nH]c4ncccc43)CC2)CC[C@H]1c1cccc(F)c1F	0.845	1.04
COc1c2occc2c(OC)c2c(=O)cc(C)oc12	0.927	0.836
CC[C@H](C)C(=O)O[C@H]1CCC=C2C=C[C@H](C)[C@H](CC[C@@H]3C[C@@H](O)CC(=O)O3)[C@H]21	0.611	0.612
Nc1cc(C(Cl)=C(Cl)Cl)c(S(N)(=O)=O)cc1S(N)(=O)=O	0.921	0.98
Cc1ccccc1CN1C2=NCCN2C(=O)C2=C1CCN(Cc1ccccc1)C2	0.952	0.903
CC(=O)O[C@H]1CC[C@@]2(C)[C@@H](CC[C@@H]3[C@@H]2CC(=O)[C@]2(C)[C@@H]4[C@H](C[C@@H]32)O[C@]2(CC[C@@H](C)CO2)[C@H]4C)C1	0.96	0.922
COC(=O)/C=C/C(C)=C\C=C\C(C)=C\C=C\C=C(C)\C=C\C=C(C)\C=C\C(=O)O	1.01	0.977
CC(=O)[C@]1(O)Cc2c(O)c3c(c(O)c2[C@@H](O[C@H]2C[C@H](N)[C@H](O)[C@H](C)O2)C1)C(=O)c1ccccc1C3=O	0.963 and 0.984	0.986 and 0.828
O=c1oc2ccccc2c(O)c1Cc1c(O)c2ccccc2oc1=O	1.04 and 0.944	1.07 and 0.963
Cn1ccc2cc(NC(=O)Nc3cccnc3)ccc21	1.15	0.855
Cc1nc(=O)c2cc(CN(C)c3ccc(C(=O)N[C@@H](CCC(=O)O)C(=O)O)s3)ccc2[nH]1	0.801	0.82
COC(=O)CCSCc1ccc(-c2onc(C)c2NC(=O)OC(C)c2ccccc2Cl)cc1 (configuration not stated)	0.999	0.999
C[C@H](Nc1cc(NS(=O)(=O)N2CCC2)nc(SCc2cccc(F)c2F)n1)[C@@H](O)CO	1.06	0.94

Structure (SMILES)	PER2::LUC luminescence (time after treatment 24 h)	PER2::LUC luminescence (time after treatment 30 h)
CC(/C=C1\SC(=S)N(CC(=O)O)C1=O)=C\c1ccccc1	0.958	1.09
CC(=O)Oc1cc(OC(C)=O)c2c(c1)O[C@H](c1ccc(OC(C)=O)c(OC(C)=O)c1)[C@H](OC(C)=O)C2	0.969	0.871
Nc1nc(=S)c2[nH]cnc2[nH]1	0.514	0.752
O=C1c2ccccc2C(=O)c2c1ccc(O)c2O	1.03	0.854
CN(C)CCC[C@@]1(c2ccc(F)cc2)OCc2cc(C#N)ccc21	0.914 and 0.716	0.905 and 0.744
CC(=O)N[C@@H](CCC(=O)O)C(=O)O	0.919	0.822
CCCC(=O)Nc1ncnc2c1ncn2[C@@H]1O[C@@H]2COP(=O)(O)O[C@H]2[C@H]1OC(=O)CCC	1.04	1.13
CC1=CC(=O)NS(=O)(=O)O1	0.908	0.814
O=C(CNC(=O)c1ccc(Cl)cc1)NO	1	0.905
CN1CCCC(n2nc(Cc3ccc(Cl)cc3)c3ccccc3c2=O)CC1 (configuration not stated)	0.596 and 0.594	0.705 and 0.501
CN1CCCCC1CCN1c2ccccc2Sc2ccc([S+](C)[O-])cc21 (configuration not stated)	0.759 and 0.735	0.773 and 0.766
COc1cc(OC)c(C=C2C(=O)Nc3ccccc32)c(OC)c1	0.404	0.575
O=C(O[C@H]1CN2CCC1CC2)N1CCc2ccccc2[C@@H]1c1ccccc1	0.801 and 0.735	0.812 and 0.74
NC(=O)N/N=C/c1ccc([N+](=O)[O-])o1	1.05 and 0.915	0.913 and 0.857
COc1ccc(C2(CNC(=O)c3ccc(NC(=O)c4ccco4)cc3)CCOCC2)cc1	1.06	1.03
COc1c(-c2ccccc2)oc2cc(O)cc(O)c2c1=O	1.02	0.951
O=S(=O)(c1ccccc1)c1cnc2c(N3CCNCC3)cccc2c1	0.884	0.797
CN(NC(=O)CC(=O)NN(C)C(=S)c1ccccc1)C(=S)c1ccccc1	1.68	1.1
CC(C)C[C@H](NC(=O)[C@H](CCCCN)NC(=O)[C@H](CCCNC(=N)N)NC(=O)[C@H](C)NC(=O)[C@H](CO)NC(=O)[C@H](CCCCN)NC(=O)[C@H](CCCNC(=N)N)NC(=O)[C@H](C)NC(=O)CNC(=O)[C@@H](NC(=O)[C@H](Cc1ccccc1)NC(=O)CNC(=O)CNC(=O)[C@@H](N)Cc1ccccc1)[C@@H](C)O)C(=O)N[C@@H](C)C(=O)N[C@@H](CC(N)=O)C(=O)N[C@@H](CCC(N)=O)C(=O)O	1.05	0.93
C=C1C(=O)O[C@H](CCCCCCCC)[C@H]1C(=O)O	1.05	1
COc1ccc(CCN2CN=C(SCc3ccc(Cl)cc3)NC2)cc1OC	0.912	0.83

Structure (SMILES)	PER2::LUC luminescence (time after treatment 24 h)	PER2::LUC luminescence (time after treatment 30 h)
C=CCCCCCCCCCCCC(O)CC(O)CO (configuration not stated)	0.967	0.789
CN(C)C(=N)N=C(N)N	1.07	1.16
O=C1c2ccccc2-n2c1nc1ccccc1c2=O	0.998	0.885
CO[C@@H]1[C@@H](OC(N)=O)[C@@H](O)[C@H](Oc2ccc3c(O)c(NC(=O)c4ccc(O)c(CC=C(C)C)c4)c(=O)oc3c2C)OC1(C)C	0.851	0.977
O=Nc1c(-c2c(O)[nH]c3cc(Br)ccc23)[nH]c2ccccc12	0.663	0.788
C=C=CCNC(=O)c1ccc(F)cc1	0.754	0.841
CC(=O)Oc1cccc(O)c1	0.741 and 0.687	1.09 and 0.878
CCN1CCN(C(=O)N[C@@H](C(=O)N[C@@H]2C(=O)N3[C@@H]2SC(C)(C)[C@@H]3C(=O)O)c2ccccc2)C(=O)C1=O	0.919	0.832
CC(C)[C@H](CO)Nc1nc(Sc2cccc(N)c2)c2ncn(C(C)C)c2n1	0.582	0.686
OCCN1CCN(CCCN2c3ccccc3Sc3ccc(Cl)cc32)CC1	0.659	0.622
CC(C)(C)NCc1cc(Nc2ccnc3cc(Cl)ccc23)c2c(c1O)CCCC2	0.778	0.809
CN(C)CCc1c[nH]c2ccc(Cn3cncn3)cc12	0.497	0.919
Nc1ccc(S(=O)(=O)c2ccc(N)cc2)cc1	1.04 and 0.928	1.02 and 0.889
O=C(c1ccc(C(=O)N2CCC(N3CCCC3)CC2)c(Nc2ccccc2)c1)N1CCC(N2CCCC2)CC1	0.991	1.03
OC[C@H]1O[C@@H](Oc2ccc(O)cc2)[C@H](O)[C@@H](O)[C@@H]1O	1.02	0.876
COc1cc(/C=C/C(=O)O)cc(OC)c1OC	0.994	0.955
CS(=O)(=O)c1cc(F)cc2c3c(n(Cc4ccc(Cl)cc4)c12)[C@@H](CC(=O)O)CC3	1.13	1.09
NCCCCCCCCCCN	1.04	0.932
CC(Nc1ccc(-c2nn[nH]n2)cc1)C(=O)O (racemic)	0.971	0.96
N#Cc1c(N)nc(SCc2csc(-c3ccc(Cl)cc3)n2)c(C#N)c1-c1ccc(OCCO)cc1	1.02	0.984
N=C(N)NCC1COC2(CCCCC2)O1 (configuration not stated)	0.966	0.973

Structure (SMILES)	PER2::LUC luminescence (time after treatment 24 h)	PER2::LUC luminescence (time after treatment 30 h)
CC1(C)OC(=O)NC1=O	0.929	0.857
Nc1ccc(C(=O)NCC(=O)O)cc1	1.04 and 0.744	0.909 and 1.14
COc1ccc(NS(=O)(=O)c2ccc(N)cc2)nn1	0.945	0.729
Cn1ncc(Cl)c1-c1cc(C(=O)N[C@H](CN)Cc2ccc(F)c(F)c2)oc1Cl	0.189	0.202
Cn1nnnc1SCC1=C(C(=O)O)N2C(=O)[C@@H](NC(=O)[C@H](O)c3ccccc3)[C@H]2SC1	1.07	0.988
Fc1ccc(-c2nc3n(c2-c2ccncc2)CCS3)cc1	0.645	0.717
O=c1c(-c2ccc(O)cc2)coc2cc(O[C@@H]3O[C@H](CO)[C@@H](O)[C@H](O)[C@H]3O)cc(O)c12	1.3	1.32
CCC[C@H](N[C@@H](C)C(=O)N1[C@H](C(=O)O)C[C@@H]2CCCC[C@@H]21)C(=O)OCC	0.982	0.772
N=C(N)NC(=N)N1CCOCC1	1.25	0.999
O=C(Nc1ncc([N+](=O)[O-])s1)c1ccccc1O	1.45	1.73
NC(C(=O)O)c1cc(O)cc(O)c1 (racemic)	0.964	0.884
CCOC(=O)c1ccc(OCCC2CCN(c3ccc(C)nn3)CC2)cc1	1.06	0.939
NC(C(=O)O)C(O)C(=O)O (configuration not stated)	0.976	0.948
Cc1ncc(CSSCc2cnc(C)c(O)c2CO)c(CO)c1O	1.01 and 0.938	0.875 and 0.905
CC1NC(=O)NC1=O (configuration not stated)	0.946	0.877
CC(=O)Oc1cccc2c1C(=O)c1c(OC(C)=O)cc(C(=O)O)cc1C2=O	1.06 and 0.964	1.02 and 0.931
CCN(CC)Cc1ccc2cc(COC(=O)Nc3ccc(C(=O)NO)cc3)ccc2c1	0.53 and 0.352	0.441 and 0.278
OC[C@H]1O[C@H](O[C@H]2C(O)[C@@H](O)[C@@H](OC[C@H]3O[C@@H]4O[C@H]5[C@H](O)[C@@H](O)[C@@H](O[C@H]6[C@H](O)[C@@H](O)[C@@H](O[C@H]7[C@H](O)[C@@H](O)[C@@H](O[C@H]8[C@H](O)[C@@H](O)[C@@H](O[C@H]9[C@H](O)[C@@H](O)[C@@H](O[C@H]%10[C@H](O)[C@@H](O)[C@@H](O[C@H]3[C@H](O)[C@H]4O)O[C@@H]%10CO)O[C@@H]9CO)O[C@@H]8CO)O[C@@H]7CO)O[C@@H]6CO)O[C@@H]5CO)O[C@@H]2CO)[C@H](O)[C@@H](O)[C@@H]1O (some centres not stated)	1.08	1.06
